# Measurements from the RNAGym collection of RNA variant scans (doi:10.1093/nar/gkz1192).
# Read counts are not given, so values of variants with three or more changes are uncertain.
# B1: CPEB3 Ribozyme (parent)
# chain: UAACAGGGGGCCACAGCAGAAGCGUUCACGUCGCAGCCCCUGUCAGAUUCUGGUGAAUCUGCGAAUUCUGCUGUAUAUCUC
# Variants of: B1
# Test: self-cleavage, relative activity (ratio to wild type); higher = more cleavage; in vitro, sequencing
# How it was run: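 Libraries of CPEB3 self-cleaving ribozyme mutants came from rounds of error-prone PCR and carried barcodes, which DNA sequencing matched to variants. In vitro transcription used T7 RNA polymerase at 37°C for 5 hours, with a further 15 min in DNase I before EDTA stopped the reaction; the ribozymes cleaved during both steps. The RNA was reverse transcribed with template switching and sequenced on Illumina. Relative activity is the cleaved/total read fraction of a variant divided by that of the unmutated ribozyme, averaged over three batches with at least 5 reads.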
row,Variant,self-cleavage
1,A13G G24A A35G U69A,0.22
2,A13G G24A U43A,0.07
3,A13G G24C U26C A57G A64G U72A C79U,0.07
4,A13G G24C U43C A65G C71U,0.16
5,A13G G30A A56U U80C,0.19
6,A13G G30A U66C,0.22
7,A13G G30U C39A,0.3
8,A13G G30U U51A U60A,0.15
9,A13G G33A A64G,0.08
10,A13G G33C U78A,0.06
11,A13G G42A U43G G46A,0.07
12,A13G G42A U72A,0.15
13,A13G G46U U49C,0.07
14,A13G G53U C62A U80C,0.21
15,A13G G61C A64U,0.11
16,A13G G63A G70A U72C,0.06
17,A13G U25A U26C A28G A57U,0.11
18,A13G U25A U54C U74C,0.1
19,A13G U25C A28G A35U U41C U60G C79U,0
20,A13G U25C A35G U69A,0.56
21,A13G U25C A45G A64U U78A,0.05
22,A13G U25C A45G G52U G61A,0.13
23,A13G U25C A45G U48C G73U U78C,0.31
24,A13G U25C A65U G70A A77G U78C,0.06

row,Variant,self-cleavage
1,A13G U25C U26C U54C U67C A75U,0.12
2,A13G U25C U41C A75U,0.08
3,A13G U25C U43C U66A U78C,0.09
4,A13G U25C U49C U54C U66C U72C U80A,0
5,A13G U25C U49C U58A C62A U72A U78G,0.11
6,A13G U25C U60A U66C U72C,0.21
7,A13G U25C U60A U80A,0.24
8,A13G U25C U66C U72A U78C,0.08
9,A13G U26A A35G C39U U80C,0.66
10,A13G U26A U54C,0.8
11,A13G U26C A28C U67A,0.09
12,A13G U26C A28U A35U C50A U78C,0.04
13,A13G U26C A45G U60C A64G U72C,0.26
14,A13G U26C C38U U49C U58C U80C,0.05
15,A13G U26C C39U A47G,0.16
16,A13G U26C C40U A65G C68G,0.08
17,A13G U26C G33U U48C,0.07
18,A13G U26C U41A U78A,0.36
19,A13G U26C U41C U60C,0.33
20,A13G U26C U41G A57G U58C,0
21,A13G U26C U51C,0.55
22,A13G U26C U66G,0.18
23,A13G U31A C38A U41A A56G,0.23
24,A13G U31A C38U,0.31

row,Variant,self-cleavage
1,A13G U31A U58C U74C,0.18
2,A13G U31C A45G A64G U74A,0.2
3,A13G U31C A47G U72C,0.24
4,A13G U31C C59A U72C,0.17
5,A13G U31C U41A U54G,0.1
6,A13G U31C U66A U69C,0.07
7,A13G U31G A35G U41A A57G,0.41
8,A13G U31G U51A U54C,0.57
9,A13G U41A A45G U49A,0.26
10,A13G U41A G55C,0.26
11,A13G U41A U51G U66G,0.1
12,A13G U41A U60A A65G U78C,0.23
13,A13G U41C A65G U72C,0.19
14,A13G U41C U48C U49C,0.23
15,A13G U41C U51C,0.88
16,A13G U41C U54A,0.94
17,A13G U41C U58C U67A U78C,0.13
18,A13G U43A A57G A65G,0.28
19,A13G U43A A57G U72C,0.99
20,A13G U43A U54A,0.97
21,A13G U43C U51G,0.28
22,A13G U43C U60A,0.07
23,A13G U43C U74A,0.88
24,A13G U43C U80A,0.72

row,Variant,self-cleavage
1,A13G U48C U51A U54C U72A,0.38
2,A13G U48C U66C U80A,0.11
3,A13G U48C U67C,0.19
4,A13G U48C U69A U80C,0.14
5,A13G U49C A56U,0.2
6,A13G U49C G63A A75G,0.37
7,A13G U49C U54A G61U,0.1
8,A13G U49C U67A U78A,0.11
9,A13G U49C U72A,0.29
10,A13G U51A U60C U72C,0.23
11,A13G U51A U74C,0.83
12,A13G U51C A57C,0.18
13,A13G U54C C62A,0.26
14,A13G U54C U60C A64G U72G,0.17
15,A13G U54C U69G,0.45
16,A13G U54G G63C A65U U69A,0.16
17,A13G U58A A64G U66A U72A,0.07
18,A13G U58A U60C,0.27
19,A13G U60A U78A,0.28
20,A13G U60A U78C,0.29
21,A13G U60C A75G,0.63
22,A13G U66C C71U U74C A77G,0.19
23,A13G U66C U80C,0.25
24,A13G U72G U76C A77U,0.68

row,Variant,self-cleavage
1,A13G U78C U80A,1.14
2,A13U A15C A20G A35U U41A U76G,0.09
3,A13U A15C C44A A45U U80C,0.3
4,A13U A15C U49C,0.22
5,A13U A15G A20G U72C C79G,1.26
6,A13U A15G A21G A35C A45U C62U,0.07
7,A13U A15G A21G A56U U66A U72A U80C,0.05
8,A13U A15G A28G U31G A45U U60C,0.07
9,A13U A15G A28U A64U U69A,0.13
10,A13U A15G A28U U41A U69A,0.2
11,A13U A15G A28U U51C U80A,0.47
12,A13U A15G A35U C50A U69C,0.16
13,A13U A15G A47G A64G A75G,0.53
14,A13U A15G A56G G70A,0.24
15,A13U A15G G16A U60A,0.19
16,A13U A15G U25A G52C,0.34
17,A13U A15G U25C,0.37
18,A13U A15G U26A A65G,0.27
19,A13U A15G U26A U72A,0.55
20,A13U A15G U41C A56G,0.66
21,A13U A15G U43C,0.85
22,A13U A15U A28C,0.18
23,A13U A15U G73A,1.03
24,A13U A15U U31A A56U U72C,0.17

row,Variant,self-cleavage
1,A13U A18C A45G U67A U76C,0.22
2,A13U A18C U51C A64G A65G U74C,0.04
3,A13U A18G A56G,0.91
4,A13U A18G C34U C62U,0.13
5,A13U A18G C40U U67C U78A,0.11
6,A13U A18G U25C A28G U69A U74C,0.02
7,A13U A18G U25C A35U G55A U69C,0.06
8,A13U A18G U31A A35U U54A G63A,0.21
9,A13U A18G U31G A35G U41A U58C,0.04
10,A13U A18G U58C C59U U72C,0.2
11,A13U A18G U76A,0.28
12,A13U A18U A20G A35G U41A U49C U72C,0.05
13,A13U A18U A20G U43A U54C,0.35
14,A13U A18U A20G U66C A75C,0.19
15,A13U A18U A45U U54C U76A,0.12
16,A13U A18U A47U U58A U80C,0.22
17,A13U A18U G53A A65U,0.27
18,A13U A18U U25C U43C G61A U67C U74A,0.05
19,A13U A18U U26A A28G A45U,0.17
20,A13U A18U U26C,0.18
21,A13U A18U U43A U60C U74C,0.25
22,A13U A18U U43C U67C,0.11
23,A13U A18U U54C U69C U74C,0.32
24,A13U A18U U60C,0.24

row,Variant,self-cleavage
1,A13U A18U U67A U76C,0.2
2,A13U A20C A65G U74C,0.18
3,A13U A20C U48C U72A,0.06
4,A13U A20G A21G U26C G30A U69A,0.13
5,A13U A20G A21U U31C C32A C38G C59U,0.06
6,A13U A20G A35G A45U U49C U74C,0.11
7,A13U A20G A35G A65G,0.88
8,A13U A20G A45G A65G,0.21
9,A13U A20G A45U A57U U78A,0.13
10,A13U A20G A47C,0.24
11,A13U A20G A56G,0.83
12,A13U A20G A57G U69C,0.26
13,A13U A20G G33A,0.29
14,A13U A20G G33A G53U U54A U66G U72C,0.04
15,A13U A20G U48C U49C U54A U60A U66A,0.09
16,A13U A20G U49A,0.4
17,A13U A20G U51C,0.78
18,A13U A20G U66C,0.31
19,A13U A20G U69C,0.42
20,A13U A20U A35G U51C U58G U66C A77C,0.14
21,A13U A20U A45U G63A A64G U66C U69C,0.05
22,A13U A20U A47G U80C,0.49
23,A13U A20U C23U U25C A56G,0.19
